Measurements reported in publication PMC6919601, “Identification of Plasmodium dipeptidyl aminopeptidase allosteric inhibitors by high throughput screening” (PLoS ONE, 2019).
Values joined by “and” are separate entries in the source; they are usually repeats but may differ in a detail not shown here. Identical values can stand only once. About 230 (0.21%) of roughly 110,000 compounds showed an effect of 50% or more. The list shows a part of the results.

Biological target: DPAP1 (Plasmodium falciparum, UniProt Q8IIJ9)
Sequence (Q8IIJ9 whole entry, looked up): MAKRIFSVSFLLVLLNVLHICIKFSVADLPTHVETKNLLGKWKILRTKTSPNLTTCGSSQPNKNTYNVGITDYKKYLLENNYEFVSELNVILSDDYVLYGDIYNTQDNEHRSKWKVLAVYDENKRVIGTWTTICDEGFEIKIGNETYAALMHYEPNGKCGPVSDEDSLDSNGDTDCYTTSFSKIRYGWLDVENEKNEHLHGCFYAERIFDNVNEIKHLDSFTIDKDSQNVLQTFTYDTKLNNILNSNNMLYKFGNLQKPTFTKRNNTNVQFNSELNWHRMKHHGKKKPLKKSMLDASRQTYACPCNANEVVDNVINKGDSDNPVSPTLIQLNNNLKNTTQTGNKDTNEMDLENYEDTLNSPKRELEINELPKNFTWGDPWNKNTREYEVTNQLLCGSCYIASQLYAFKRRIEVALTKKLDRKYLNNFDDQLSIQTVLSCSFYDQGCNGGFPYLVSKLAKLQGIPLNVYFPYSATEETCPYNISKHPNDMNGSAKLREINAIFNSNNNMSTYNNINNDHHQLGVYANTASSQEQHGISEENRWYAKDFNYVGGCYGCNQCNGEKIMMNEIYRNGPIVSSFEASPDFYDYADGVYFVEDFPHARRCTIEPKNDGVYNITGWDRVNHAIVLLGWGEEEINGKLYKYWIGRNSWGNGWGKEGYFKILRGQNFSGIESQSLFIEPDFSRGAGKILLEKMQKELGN
Experiment: primary screen, percent inhibition; read by cleavage of a fluorogenic dipeptide substrate; higher = more effect of the substance
Design: species or system P. falciparum D10 trophozoite lysates; single well
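Also: 30 min substrate incubation versus DMSO and 10 µM JCP410 controls.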

Compound | % Inhibition @ 10 uM
COc1ccc(N(CN2C(=O)C3CCCCC3C2=O)C(C)=O)cc1 (centres unmarked) | -0.28%
O=C(Cn1ncc2c1-c1ccccc1OC2)NC1CCN(Cc2ccccc2)CC1 | -0.692%
CCOc1ccc(CC(=O)Nc2cccc(C(F)(F)F)c2)cc1OCC | -0.132%
Cc1ccc(CN2CCN(C(=O)COc3ccccc3)CC2)cc1 | 0.0504%
COc1cccc(CNc2nc3ccc(C)cc3n3nnnc23)c1 | -0.414%
Cc1ccccc1C1C=C(c2ccc(Br)s2)Nc2nnnn21 (centres unmarked) | -1.62%
CC(C)CC(C(=O)NCC#N)c1nc(-c2ccc(-c3ccc(N4CCNCC4)cc3)cc2)cs1 (centres unmarked) | -4.94%
Cn1c(=O)n(C)c2cc(/C=C3/SC(=O)N(CC(=O)Nc4cccc5ccccc45)C3=O)ccc21 | 39%
CC(CN1CCN(Cc2ccccc2)CC1)c1ccccc1 (centres unmarked) | 3.68%
CCOC(=O)C1=C(C)N(c2ccc(OCC)cc2)C(=O)/C1=C\c1ccc(F)cc1 | -3.5%
Cc1cc(C)c(C)c(S(=O)(=O)NCC(=O)NCc2ccco2)c1C | 0.709%
CCN(CC)C(=O)CSc1nnc(-c2ccccc2Cl)o1 | 2.92%
O=C(NCCCn1ccnc1)c1cc2nc(-c3ccccc3)cc(-c3ccccc3)n2n1 | 3.54%
Cc1cccc(Cl)c1OCCCc1c(C)n[nH]c1C | -6.47%
N#CC1=C(N)Oc2c(ccc3ccccc23)C1c1ccc(-c2ccccc2)cc1 (centres unmarked) | 1.26%
COc1ccc(-c2nnc3sc(NC(=O)CCc4ccccc4)nn23)cc1OC | 1.96%
Cc1cc(-c2ccco2)c(C#N)c(S)n1 | 51.7%
Cn1c(=O)[nH]c(=O)c2c1nc(NCc1ccco1)n2Cc1ccc(F)cc1 | -10.8%
CC(C)OC(=S)/N=C(\NS(=O)(=O)c1ccccc1)c1ccccc1 | 35%
C=CCN(CC=C)c1nc(-c2ccccc2)nc2ccccc12 | 3.8%
Cc1ccc(C2C(=O)N(C3CCC(C)CC3)CC(=O)N2Cc2ccc(F)cc2)cc1 (centres unmarked) | -2.14%
O=C1C2(c3ccccc3)CN3CC1(c1ccccc1)CN(C2)C3c1ccccc1O (centres unmarked) | -3.24%
COc1ccc(Cl)c(Cn2c(NCC3CCCO3)nc3c2c(=O)n(C)c(=O)n3C)c1 (centres unmarked) | 0.248%
CCCCN(C)c1c(N2CCN(C(=O)OCC)CC2)c(=O)c1=O | -1.44%
Cc1cc2c(cc3c(=O)n(CC(=O)NC4CCCc5ccccc54)ncn32)s1 (centres unmarked) | 1.68%
CC(C)CCN1C(=O)c2ccc(C(=O)Nc3cc(Cl)ccc3O)cc2C1=O | 9.17%

Compound | % Inhibition @ 10 uM
Cc1noc(C)c1S(=O)(=O)NCC(=O)O | -5.76%
COc1cccc(C(=O)Nc2ccc(Br)c(C)n2)c1 | 12.7%
COc1ccc2[nH]c(C(=O)O)c(CCNC(C)=O)c2c1 | -7.02%
Cc1cccc(NC(=O)c2ccc(OC(C)C)cc2)c1 | -3.71%
Cc1c(/C=C2\NC(=O)NC2=O)c2ccccc2n1C | 4.94%
CCCCC12CN3CC(C)(CN(C1)C3c1ccc(CC)cc1)C2=O (centres unmarked) | -3.49%
CCCc1nc2ccccc2c(=O)n1-c1ccc(Br)cc1 | -1.41%
CCn1ncc(C2=NOC(C(=O)Nc3cc(C)on3)C2)c1C (centres unmarked) | -6.68%
Cc1ccc(C(=O)CCC(=O)Nc2cccc(C)c2)cc1 | -2.76%
O=c1/c(=C/c2ccccc2Cl)sc2nc(-c3cccs3)nn12 | 3.54%
COC1=NC(N)=C(S(=O)(=O)c2ccccc2)C(c2ccccc2)C1S(=O)(=O)c1ccccc1 (centres unmarked) | 7.55%
CC(C)=CCCC1=CCC(COC(=O)Nc2ccccc2)C(C)C1 (centres unmarked) | 5.35%
CN(C)CCN(C)Cc1ccc(Cl)cc1 | -0.414%
C=CCN1C(=O)c2ccccc2C1(O)c1ccc(F)cc1 (centres unmarked) | 5.35%
CN(C)CCCN(C(=O)c1ccco1)c1nc2ccc(Cl)cc2s1 | -1.87%
CNC(=O)c1sc2nc(C)cc(C)c2c1-n1cccc1 | 5.42%
N=c1c2c3c(sc2nc2n1CCCCC2)CCCC3 | 4.06%
COc1cc(OC)cc(C(=O)NCCOc2ccc(Cl)cc2)c1 | -6.43%
Oc1nc2ccccc2c(O)c1Sc1ccccc1 | -0.496%
Cc1cccc(C(=O)Nc2c(C)nn(Cc3ccc(Cl)cc3)c2C)c1 | -4.41% and -2.74%
CC1(C)CC2=Nc3ccccc3NC(c3cc(Br)ccc3O)C2=C(O)C1 (centres unmarked) | -2.07%
CCc1cccc(NC(=O)C2C3C=CC(O3)C2C(=O)O)c1 (centres unmarked) | 3.27%
Cc1ccccc1CNC(=O)c1ccc(N)cc1C(=O)O | -5.32%
O=C(c1cccs1)N1CCN(c2ccc(Cl)c(Cl)c2)CC1 | 1.93%
CCOC(=O)c1ccc(CSc2ccc(Cl)cc2)o1 | -0.812%
COc1cc(CN2CCN(C3CCCCCC3)CC2)cc(OC)c1OC | 3.1%

Compound | % Inhibition @ 10 uM
CCOC(=O)c1c(C)[nH]c(C)c1S(=O)(=O)N1CCC(C(=O)NC(C)(C)CC)CC1 | -3.05%
O=C(c1sc2ccccc2c1Cl)N1CCCCC1 | 2.4%
CN1CCc2[nH]c3ccccc3c2C1 | -1.3%
CCc1sc(NC(=O)c2sc(C)nc2C)nc1-c1ccc(Br)cc1 | 4%
Cn1c(=O)c2c(nc(Cl)n2Cc2ccccc2Cl)n(C)c1=O | 11.5%
CCC(=O)NC(c1ccccc1)c1c(O)ccc2ccccc12 (centres unmarked) | -4.08%
Cc1nnc(N2CCC(C(=O)NCCN(C)C)CC2)c2nn(-c3ccc(Cl)cc3)c(C)c12 | 1.23%
Cc1nc2c3cccnc3nn2c(C)c1CCC(=O)NCC(C)c1ccccc1 (centres unmarked) | -0.0115%
Cc1c(CN2CCOCC2)c(O)n(CCO)c(=O)c1C#N | -2.56%
CCN(CCC/N=c1/c(-c2ccccc2)c(O)c1=O)Cc1ccccc1 | 1.14%
CC1CN(c2ccc(Cl)nn2)CC(C)O1 (centres unmarked) | 2.73%
COc1ccc(N2CCN(Cc3ccc(SC)cc3)CC2)cc1 | 3.84%
Cn1ncc(Cl)c(Oc2ccc(C(C)(C)C)cc2)c1=O | 5.56%
O=C(O)CSc1cccc(SCC(=O)O)c1 | -1.74%
O=C(Nc1nc2ccccc2s1)c1ccc(S(=O)(=O)N2CCCCC2)cc1 | -1.46%
CC12C=CC3(CN(Cc4ccccc4)C(=O)C3C1C(=O)NCc1ccc(Cl)cc1)O2 (centres unmarked) | 1.27%
COC(=O)c1cccc(-c2ccc(/C=C3\SC(=N)N(c4nccs4)C3=O)o2)c1 | -6.84%
CCCCN(C)C(=O)Cn1cc2c(n1)CCC(C)C2 (centres unmarked) | -0.0741%
COc1ccc(/C=N/N=C2\SCC(=O)N2Cc2ccccc2C)cc1OC | -3.27%
Cc1ccc(S(=O)(=O)N(CC(=O)NCc2ccc(Cl)cc2)Cc2ccccc2)cc1 | -1.6%
CC(=O)c1cccc(NS(=O)(=O)c2cccc(Cl)c2)c1 | 0.889%
COc1ccc(C2c3c(-c4c(C)cc(C)cc4O)n[nH]c3C(=O)N2CCO)cc1 (centres unmarked) | 0.00706%
Cc1c2c(ccc3ccccc32)s[n+]1CCCS(=O)(=O)O | -5.4%
C=CCOc1ccccc1/C=C(\C#N)c1nc2ccccc2[nH]1 | 2.36%
CC(C)(C)N1C(=O)C2C3C=CC(C3)C2C1=O (centres unmarked) | 1.34%
CCOc1cc(CCn2cnc3c4cc(C)ccc4nc-3c2O)ccc1OC | 3.24%

Compound | % Inhibition @ 10 uM
Cc1ccc2c(Cl)c(C(=O)Nc3cc(C)on3)sc2c1 | -1.08%
O=C(/C=C(\c1ccccc1)C(F)(F)C(F)F)c1cccs1 | -0.597%
Cc1c(C(=O)N2CCC(C(N)=O)CC2)oc2c1-c1nn(Cc3cccc(Cl)c3)cc1CC2 | -0.0401%
CCCOC(=O)C1=C(C)NC(=O)NC1c1ccc(Cl)cc1 (centres unmarked) | 2.92%
O=C1c2ccccc2C(=O)N1c1ncc(Cc2ccc(Cl)cc2)s1 | 9.4%
Cc1ccc2oc(=O)c3cnn(CC(=O)N(C)Cc4ccccc4)c3c2c1 | -3.45%
Nc1cccc(-c2nc3ccccc3s2)c1 | -2.03%
Nc1c(C(=O)NCCc2ccc(Cl)cc2)sc2ccc(S(=O)(=O)N3CCCCC3)cc12 | -1.34%
CCOc1ccc(NC2CC(=O)N(c3ccc(OC)cc3)C2=O)cc1 (centres unmarked) | 2.51%
COc1ccc(N2C(=O)C3C4C=CC(C4=C4CCCC4)C3C2=O)cc1 (centres unmarked) | 0.317%
Cc1ccc(C2=CC(c3c(F)cccc3Cl)n3nnnc3N2)cc1C (centres unmarked) | 0.00995%
CCOC(=O)C1=C(C)N=c2s/c(=C/c3cc(C)n(C)c3C)c(=O)n2C1c1ccccc1 (centres unmarked) | -7.02%
CC1CCCCC1Nc1cnn(C23CC4CC(CC(C4)C2)C3)c(=O)c1Cl (centres unmarked) | 0.0579%
CC1CCCC(NC(=O)Nc2cccs2)C1C (centres unmarked) | -1.6%
COc1ccc(S(=O)(=O)Nc2cc3oc4ccccc4c3cc2OC)cc1 | -1.63%
C=C(C)c1cccc(C(C)(C)NC(=O)N[C@@H](CC(C)C)C(=O)NCC#N)c1 | -6.68%
O=C(CN1CCN(CCO)CC1)Nc1ccc(Cl)cc1C(=O)c1ccccc1 | -1.52%
O=C1NN(c2ccccc2)C(=O)/C1=C\Nc1ccccc1 | -4.16%
COc1ccc(CN2CCN(Cc3cccc(OC)c3OC)CC2)cc1OC | -2.99%
O=C(NCc1ccc2c(c1)OCO2)c1ccc2nc(-c3ccco3)c(-c3ccco3)nc2c1 | 11.2%
O=C(Nc1sc2c(c1C(=O)NCCO)CCCC2)c1ccco1 | -2.22%
O=C1c2ccccc2C(=O)N1c1ccc(S(=O)(=O)N2CCOCC2)c2ccccc12 | -5.49%
COc1ccc(-c2nc3sc(-c4ccc(OC)cc4)nc3s2)cc1 | 44.4%
